{"source": "the RNAGym collection of RNA variant scans (doi:10.7554/elife.90254)", "parents": {"B1": {"name": "LINE1-mini (parent)", "chain": "GGCAGAGCUCAACACAGCGUGGCAAAGUGGCUGUGGCUAGACUGCC"}}, "note": "Read counts are not given, so values of variants with three or more changes are uncertain."}
{"variants_of": "B1", "test": "self-cleavage, relative activity (ratio to wild type); higher = more cleavage; in vitro, sequencing; the parent is a self-cleaving ribozyme"}
{"variant": "C10G A16G G30U C31U", "self-cleavage": 0.03}
{"variant": "C10G A16U A24C G33U G36U U38A", "self-cleavage": 0.02}
{"variant": "C10G A16U U20C C45U", "self-cleavage": 0.04}
{"variant": "C10G A24U G27C G33U U43A", "self-cleavage": 0.01}
{"variant": "C10G A24U G35A G36U A39U", "self-cleavage": 0.01}
{"variant": "C10G A25G U34C G36A", "self-cleavage": 0.01}
{"variant": "C10G A26C A39U A41U", "self-cleavage": 0.04}
{"variant": "C10G A26C G35C", "self-cleavage": 0.03}
{"variant": "C10G A26C U34A C45A", "self-cleavage": 0.02}
{"variant": "C10G C13A C15A A26C G44C", "self-cleavage": 0.01}
{"variant": "C10G C13A C18U G29U G40U C46U", "self-cleavage": 0.01}
{"variant": "C10G C13A C23A G35A", "self-cleavage": 0.02}
{"variant": "C10G C13A C42U", "self-cleavage": 0.03}
{"variant": "C10G C13A G22A A26U", "self-cleavage": 0.03}
{"variant": "C10G C13G C23A", "self-cleavage": 0.03}
{"variant": "C10G C13G C46G", "self-cleavage": 0.03}
{"variant": "C10G C13U A14C U32G U38A G40C", "self-cleavage": 0}
{"variant": "C10G C15A A24C G27U G29U C45G", "self-cleavage": 0.01}
{"variant": "C10G C15A G30A", "self-cleavage": 0.02}
{"variant": "C10G C15G A26G", "self-cleavage": 0.02}
{"variant": "C10G C15G C31U G33U", "self-cleavage": 0.02}
{"variant": "C10G C15G U20G", "self-cleavage": 0.01}
{"variant": "C10G C15G U20G A24U", "self-cleavage": 0.01}
{"variant": "C10G C15U A26C C37U", "self-cleavage": 0.02}
{"variant": "C10G C15U C18G U43C", "self-cleavage": 0.01}
{"variant": "C10G C15U G21A C37U A39G", "self-cleavage": 0.01}
{"variant": "C10G C15U U20A C46A", "self-cleavage": 0.02}
{"variant": "C10G C18A C31A", "self-cleavage": 0.11}
{"variant": "C10G C18A C37A C42U U43A", "self-cleavage": 0}
{"variant": "C10G C18A G21A C37A", "self-cleavage": 0.02}
{"variant": "C10G C18A G27C G36C", "self-cleavage": 0.02}
{"variant": "C10G C18A U28C G35A A41G", "self-cleavage": 0.01}
{"variant": "C10G C18G C31U", "self-cleavage": 0.02}
{"variant": "C10G C18G G30C C31G", "self-cleavage": 0}
{"variant": "C10G C18U A39U", "self-cleavage": 1.05}
{"variant": "C10G C18U G40U", "self-cleavage": 0.01}
{"variant": "C10G C18U U28A", "self-cleavage": 0.2}
{"variant": "C10G C23A C37U", "self-cleavage": 0.02}
{"variant": "C10G C23G A25C", "self-cleavage": 0.1}
{"variant": "C10G C23G G27U G33C G36A", "self-cleavage": 0.01}
{"variant": "C10G C23U C31A G33U", "self-cleavage": 0.01}
{"variant": "C10G C23U C46G", "self-cleavage": 0.16}
{"variant": "C10G C31A U34A", "self-cleavage": 0.01}
{"variant": "C10G C31A U38C", "self-cleavage": 0.01}
{"variant": "C10G G17A A25U", "self-cleavage": 0.06}
{"variant": "C10G G17A C31A", "self-cleavage": 0.05}
{"variant": "C10G G17U G19A G36U A41U", "self-cleavage": 0.01}
{"variant": "C10G G17U G21U C42A", "self-cleavage": 0.01}
{"variant": "C10G G17U G33C", "self-cleavage": 0.01}
{"variant": "C10G G17U G33C C37A", "self-cleavage": 0.02}
{"variant": "C10G G17U G33U", "self-cleavage": 0.01}
{"variant": "C10G G17U G33U C46G", "self-cleavage": 0.02}
{"variant": "C10G G19A C31A U38C", "self-cleavage": 0.02}
{"variant": "C10G G19A G27C", "self-cleavage": 0.06}
{"variant": "C10G G19A G29C", "self-cleavage": 0.16}
{"variant": "C10G G19A G30U U32A G33A C45U", "self-cleavage": 0.01}
{"variant": "C10G G19C A41G C42U", "self-cleavage": 0.01}
{"variant": "C10G G19C C23U G44A", "self-cleavage": 0.02}
{"variant": "C10G G19C C42A", "self-cleavage": 0}
{"variant": "C10G G19U A39C C42G", "self-cleavage": 0.01}
{"variant": "C10G G19U G21C A26U U28G G30U G44C", "self-cleavage": 0.05}
{"variant": "C10G G19U G36C", "self-cleavage": 0.02}
{"variant": "C10G G19U G36U", "self-cleavage": 0.01}
{"variant": "C10G G21A A25G C37U C46U", "self-cleavage": 0}
{"variant": "C10G G21A G22C G36U C46G", "self-cleavage": 0.01}
{"variant": "C10G G21A G36A", "self-cleavage": 0.03}
{"variant": "C10G G21C G29A C31U G36U", "self-cleavage": 0}
{"variant": "C10G G21C G44C", "self-cleavage": 0.05}
{"variant": "C10G G21U C37G", "self-cleavage": 0}
{"variant": "C10G G21U C45U", "self-cleavage": 0.33}
{"variant": "C10G G21U G40U", "self-cleavage": 0.03}
{"variant": "C10G G22A G33U U38G", "self-cleavage": 0.01}
{"variant": "C10G G22C C37A", "self-cleavage": 0.01}
{"variant": "C10G G22C C37G", "self-cleavage": 0.01}
{"variant": "C10G G22U A24G", "self-cleavage": 0.12}
{"variant": "C10G G22U A26C", "self-cleavage": 0.15}
{"variant": "C10G G22U A26C C31A U38A C42U", "self-cleavage": 0.02}
{"variant": "C10G G22U G44U", "self-cleavage": 0.02}
{"variant": "C10G G29U C45A", "self-cleavage": 0.03}
{"variant": "C10G G30A A39G", "self-cleavage": 0.02}
{"variant": "C10G G30U C37A", "self-cleavage": 0.02}
{"variant": "C10G G30U U43A", "self-cleavage": 0.02}
{"variant": "C10G G33C C37A", "self-cleavage": 0}
{"variant": "C10G G35C G40C", "self-cleavage": 0.02}
{"variant": "C10G G35U A39C", "self-cleavage": 0.02}
{"variant": "C10G G36A G40A", "self-cleavage": 0}
{"variant": "C10G G40U C45U", "self-cleavage": 0.03}
{"variant": "C10G U20A C46U", "self-cleavage": 0.04}
{"variant": "C10G U20A G22C G36A", "self-cleavage": 0.02}
{"variant": "C10G U20A G33U", "self-cleavage": 0.03}
{"variant": "C10G U28A C37G", "self-cleavage": 0.01}
{"variant": "C10G U28G C37U C45G", "self-cleavage": 0.01}
{"variant": "C10G U28G C46G", "self-cleavage": 0.03}
{"variant": "C10G U32A U43C", "self-cleavage": 0}
{"variant": "C10G U32G G33A", "self-cleavage": 0.05}
{"variant": "C10G U34A C46A", "self-cleavage": 0.05}
{"variant": "C10G U34A C46U", "self-cleavage": 0.05}
{"variant": "C10G U34C A39G C42U", "self-cleavage": 0.02}
{"variant": "C10G U34C G44C", "self-cleavage": 0.03}
{"variant": "C10G U38G A39U G40U", "self-cleavage": 0.01}
{"variant": "C10U A11C A14U", "self-cleavage": 0.08}
{"variant": "C10U A11C G33C", "self-cleavage": 0.02}
{"variant": "C10U A11G C37A C42A C46G", "self-cleavage": 0.01}
{"variant": "C10U A11U A14G G19U A26C", "self-cleavage": 0.03}
{"variant": "C10U A11U C13U A16U G29U", "self-cleavage": 0.03}
{"variant": "C10U A11U C18A C31G A41C", "self-cleavage": 0.01}
{"variant": "C10U A11U G19C G27U", "self-cleavage": 0.08}
{"variant": "C10U A11U U28A U34C U43G", "self-cleavage": 0}
{"variant": "C10U A11U U34G", "self-cleavage": 0.02}
{"variant": "C10U A12C C15U A16U", "self-cleavage": 0.03}
{"variant": "C10U A12C G22C A41G C42U", "self-cleavage": 0}
{"variant": "C10U A12C G33U", "self-cleavage": 0.05}
{"variant": "C10U A12G A26C G30C A41G", "self-cleavage": 0.01}
{"variant": "C10U A12G C13A A16U C46G", "self-cleavage": 0.01}
{"variant": "C10U A12G C15G G29A U32G", "self-cleavage": 0.02}
{"variant": "C10U A12G C15U", "self-cleavage": 0.09}
{"variant": "C10U A12G C15U G22U", "self-cleavage": 0.02}
{"variant": "C10U A12G G33C", "self-cleavage": 0.02}
{"variant": "C10U A12U C23A A25C A41C", "self-cleavage": 0.03}
{"variant": "C10U A12U C42U C46A", "self-cleavage": 0.09}
{"variant": "C10U A14C A25G C42U", "self-cleavage": 0}
{"variant": "C10U A14C C37A G40C U43G", "self-cleavage": 0.04}
{"variant": "C10U A14C C42G", "self-cleavage": 0.09}
{"variant": "C10U A14C G33C G36C C42A", "self-cleavage": 0.01}
{"variant": "C10U A14C U20C G33C", "self-cleavage": 0.02}
{"variant": "C10U A14G A16G U20G", "self-cleavage": 0}
{"variant": "C10U A14G G17U C31G U34G C45U", "self-cleavage": 0.02}
{"variant": "C10U A14G G21U A25C C42A", "self-cleavage": 0.05}
{"variant": "C10U A14U U32C", "self-cleavage": 0.04}
{"variant": "C10U A16C A25G G35A", "self-cleavage": 0.03}
{"variant": "C10U A16C C18U G44C", "self-cleavage": 0.02}
{"variant": "C10U A16C G22C", "self-cleavage": 0.03}
{"variant": "C10U A16G A26G A39G U43A", "self-cleavage": 0.01}
{"variant": "C10U A16U G17U G19U G22C", "self-cleavage": 0.07}
{"variant": "C10U A16U G22C", "self-cleavage": 0.07}
{"variant": "C10U A16U G30A G44U", "self-cleavage": 0.05}
{"variant": "C10U A24C U32C G33A", "self-cleavage": 0.04}
{"variant": "C10U A24G C37U A41U", "self-cleavage": 0.02}
{"variant": "C10U A24U G27U", "self-cleavage": 0.61}
{"variant": "C10U A24U G33U", "self-cleavage": 0.04}
{"variant": "C10U A24U G40U", "self-cleavage": 0.06}
{"variant": "C10U A24U U28C C37A", "self-cleavage": 0.01}
{"variant": "C10U A25C A26C G29C G30A C46A", "self-cleavage": 0.65}
{"variant": "C10U A25G U28C C31G", "self-cleavage": 0.02}
{"variant": "C10U A25U C31A U32A", "self-cleavage": 0.2}
{"variant": "C10U A25U G27C C31A", "self-cleavage": 0.42}
{"variant": "C10U A25U G40A", "self-cleavage": 0.04}
{"variant": "C10U A25U U28A G29U", "self-cleavage": 0.9}
{"variant": "C10U A39U C45A", "self-cleavage": 0.06}
{"variant": "C10U A41U C45U", "self-cleavage": 0.07}
{"variant": "C10U C13A G19A G22A", "self-cleavage": 0.03}
{"variant": "C10U C13A G36U G40U", "self-cleavage": 0.13}
{"variant": "C10U C13A U20G A25G A41G", "self-cleavage": 0}
{"variant": "C10U C13A U32C U43G", "self-cleavage": 0.01}
{"variant": "C10U C13A U32G G33A A41U", "self-cleavage": 0.03}
{"variant": "C10U C13G A39U G40U", "self-cleavage": 0.02}
{"variant": "C10U C13G G19A A39U", "self-cleavage": 0.16}
{"variant": "C10U C13U C15A G19U", "self-cleavage": 0.04}
{"variant": "C10U C13U U43C", "self-cleavage": 0.05}
{"variant": "C10U C15A C18U", "self-cleavage": 0.02}
{"variant": "C10U C15A G30C U38G", "self-cleavage": 0.03}
{"variant": "C10U C15A G40C", "self-cleavage": 0.02}
{"variant": "C10U C15G A16C", "self-cleavage": 0.02}
{"variant": "C10U C15G A16U U28C", "self-cleavage": 0.02}
{"variant": "C10U C15G C18U U20A C45G", "self-cleavage": 0.01}
{"variant": "C10U C15G G17A", "self-cleavage": 0.04}
{"variant": "C10U C15G G17U G22C G33A", "self-cleavage": 0.07}
